57 molecules from paper PMC4336329 (PLoS ONE, 2015) can be followed below.

In all, about 310,000 compounds went through this assay and about 2,200 (0.71%) showed an effect of 50% or more. Effects have a minus sign here. The list shows a part of the results.

human ether-à-go-go-related gene (hERG) potassium channel, sequence (Q12809 whole entry, looked up): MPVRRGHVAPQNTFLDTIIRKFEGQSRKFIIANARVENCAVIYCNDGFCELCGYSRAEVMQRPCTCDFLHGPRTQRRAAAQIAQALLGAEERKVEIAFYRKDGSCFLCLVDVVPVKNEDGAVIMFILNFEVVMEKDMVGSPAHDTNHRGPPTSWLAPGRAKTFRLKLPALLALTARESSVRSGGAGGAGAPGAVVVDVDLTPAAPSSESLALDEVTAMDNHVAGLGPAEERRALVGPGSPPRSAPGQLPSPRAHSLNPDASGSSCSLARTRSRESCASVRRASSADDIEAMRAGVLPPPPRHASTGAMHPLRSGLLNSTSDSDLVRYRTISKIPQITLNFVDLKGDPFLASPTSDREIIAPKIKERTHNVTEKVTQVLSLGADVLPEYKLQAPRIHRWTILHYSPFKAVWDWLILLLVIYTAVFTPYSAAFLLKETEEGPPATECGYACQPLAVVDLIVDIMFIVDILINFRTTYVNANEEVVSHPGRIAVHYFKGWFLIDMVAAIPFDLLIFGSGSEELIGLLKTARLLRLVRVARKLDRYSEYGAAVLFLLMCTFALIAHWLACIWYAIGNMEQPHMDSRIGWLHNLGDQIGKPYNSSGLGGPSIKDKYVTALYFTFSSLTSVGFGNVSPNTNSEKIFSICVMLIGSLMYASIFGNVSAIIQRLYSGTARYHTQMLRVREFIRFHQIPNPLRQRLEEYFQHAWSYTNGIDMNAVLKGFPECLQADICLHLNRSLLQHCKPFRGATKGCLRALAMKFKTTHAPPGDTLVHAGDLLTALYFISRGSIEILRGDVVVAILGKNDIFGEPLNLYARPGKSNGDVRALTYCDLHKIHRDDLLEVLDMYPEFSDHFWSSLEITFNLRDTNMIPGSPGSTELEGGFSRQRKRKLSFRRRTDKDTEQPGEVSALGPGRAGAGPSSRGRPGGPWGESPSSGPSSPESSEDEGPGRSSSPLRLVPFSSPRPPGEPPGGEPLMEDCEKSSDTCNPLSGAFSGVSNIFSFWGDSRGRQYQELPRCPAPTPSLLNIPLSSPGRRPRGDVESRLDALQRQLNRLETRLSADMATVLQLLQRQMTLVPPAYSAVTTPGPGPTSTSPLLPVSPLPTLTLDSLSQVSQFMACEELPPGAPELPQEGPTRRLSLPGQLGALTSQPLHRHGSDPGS

The experiment concerns the target human ether-à-go-go-related gene (hERG) potassium channel (human, UniProt Q12809). The experiment can be described thus: primary screen, population patch clamp on CHO cells stably expressing hERG.
For the molecule `COc1cccc(NC(=O)c2ccc(S(=O)(=O)N3CCCCC3)cc2)c1`, the “hERG current change (%, negative = inhibition) at 1uM” value is given as 7.32%.

Take `CC(=O)Nc1ccc(S(=O)(=O)N2CCCC2C(=O)O)cc1` (stereo not drawn): the “hERG current change (%, negative = inhibition) at 1uM” value is 6.63%. Take `COc1ccccc1CCNC(=O)C1CCC(=O)N(Cc2ccccc2OC)C1` (stereo not drawn): the “hERG current change (%, negative = inhibition) at 1uM” value is -2.39%. To `O=C(CN1C2CCCC1CC(NC(=O)c1ccccc1)C2)Nc1ccccc1` (stereo not drawn) belongs -18.4%. For `Cc1noc(C)c1COc1ccc(C(=O)NCc2ccccn2)cc1`, the “hERG current change (%, negative = inhibition) at 1uM” value is given as 18.5%.

For the molecule `O=C(CSc1nnc(CNC(=O)c2ccc(F)cc2)o1)NCc1ccc2c(c1)OCO2`, the “hERG current change (%, negative = inhibition) at 1uM” value amounted to 12.1%.

Consider `CC(=O)[C@@]12O[C@@H]1C[C@H]1[C@@H]3CC[C@H]4C[C@@H](O)CC[C@]4(C)[C@H]3CC[C@@]12C`, for which the “hERG current change (%, negative = inhibition) at 1uM” value stood at 4.74%.

`COc1ccc(NC(=S)N2CCC(C(=O)N3CCCCCC3)CC2)cc1`: the “hERG current change (%, negative = inhibition) at 1uM” value was found to be 15.3%.

`O=C1NCCCC1C(=O)Nc1cccc(C(F)(F)F)c1` (stereo not drawn): the “hERG current change (%, negative = inhibition) at 1uM” value is reported as -2.17%. Consider `CCCCCNS(=O)(=O)c1cc(C)ccc1OC`, for which the “hERG current change (%, negative = inhibition) at 1uM” value turned out to be 14.6%. The result for `COc1cccc(NC(=O)CCNS(=O)(=O)c2cccc3nsnc23)c1` reads 5.59%; that for `COc1ccc([C@H]2CC(=O)C=C(c3cc4ccccc4c4ccccc34)C2)cc1`, 17%. The result for `CN(C)CCCN(C(=O)c1ccco1)c1nc(-c2ccc(Cl)cc2)cs1.Cl` reads -70.8%; that for `COc1ccc(-c2cc(C(=O)OC3CCOC3=O)c3ccccc3n2)cc1OC` (stereo not drawn), 9.92%.

`CCOC(=O)c1oc2ccccc2c1CSc1nnnn1-c1ccccc1`: the “hERG current change (%, negative = inhibition) at 1uM” value was found to be 4.05%. On to `NC(=O)c1ccc(NCCc2ccccc2)c([N+](=O)[O-])c1`, for which the “hERG current change (%, negative = inhibition) at 1uM” value is 1.48%. The result for `O=C(Nc1ccccc1N1CCOCC1)c1cc(F)cc(F)c1` reads 5.99%. In the case of `O=C(Nc1nccs1)c1cc([N+](=O)[O-])ccc1Cl`, the “hERG current change (%, negative = inhibition) at 1uM” value is on record as 13.9%. To `O=C(NCC1CCCO1)c1cccc2ccccc12` (stereo not drawn) belongs 17.8%. Take `O=C1S/C(=C/c2ccc(N3CCOCC3)o2)C(=O)N1Cc1c(F)cccc1Cl`: the “hERG current change (%, negative = inhibition) at 1uM” value amounted to 13%. The result for `Cc1cccc(NC(=S)NC(C)C(c2ccccc2)N2CCN(C)CC2)c1C` (stereo not drawn) reads -23.4%; that for `Cc1ccc(/C=N/N=C2/NC(=O)C(CC(=O)Nc3ccc(Cl)cc3)S2)o1` (stereo not drawn), 12%; that for `CC(Oc1ccc(Br)cc1)C(=O)Nc1ccc(S(=O)(=O)N(C)C2CCN(C)CC2)cc1` (stereo not drawn), 9.55%. To `CC(C)NC(=O)CCCn1cc([N+](=O)[O-])cn1` belongs 8.9%; to `O=C(c1ccc2c(c1)C(=O)N(Cc1ccco1)C2=O)N1CCOCC1`, 11.9%. As to `CC(NC(=O)CN1CCOCC1)c1ccc(F)cc1` (stereo not drawn), the “hERG current change (%, negative = inhibition) at 1uM” value is on record as 6.68%. To `CC(C)(C)c1ccc(OCCC(=O)OCC(=O)NC2CC2)cc1` belongs 2.6%; to `Oc1ccccc1CN1CCCC(N2CCN(c3cccc(C(F)(F)F)c3)CC2)C1` (stereo not drawn), 17.6%. The result for `CC(CN1CCOCC1)OC(=O)Cc1ccccc1.Cl` (stereo not drawn) reads 6.83%; that for `O=C(/C=C/c1ccc(Br)cc1)N1CCN(c2cccc(C(F)(F)F)c2)CC1`, 2.55%.

For the molecule `CCOc1ccc(S(=O)(=O)Nc2ccc(C(=O)NCC(c3ccco3)N(C)C)cc2)cc1` (stereo not drawn), the “hERG current change (%, negative = inhibition) at 1uM” value amounted to 1.38%. To `COc1ccc(N(C(C)C(=O)NC2CCCCCC2)S(C)(=O)=O)cc1` (stereo not drawn) belongs 5.83%; to `CC(C)C1Oc2ccccc2N(CC(=O)N2CCOCC2)C1=O` (stereo not drawn), 6.66%. The result for `CCCc1cc(=O)oc2cc(C)cc(OCC(=O)NC3CC3)c12` reads 11.9%. To `CC(C)NC(=O)CSc1nc(-c2cccs2)cc(-c2ccccc2)c1C#N` belongs 14.4%. As to `CCCCNC(=O)c1ccccc1NC(=O)C1=C(C)OCCS1`, the “hERG current change (%, negative = inhibition) at 1uM” value was 6.8%.

Take `CC(=O)c1cccc(NC(=O)CN(c2cccc(F)c2)S(C)(=O)=O)c1`: the “hERG current change (%, negative = inhibition) at 1uM” value is 8.75%. To `CN(C)CCN(Cc1cc2cc3c(cc2[nH]c1=O)OCCO3)C(=S)NCC1CCCO1` (stereo not drawn) belongs 13.3%.

For the molecule `COc1cc([N+](=O)[O-])ccc1NC(=O)CN(C)C`, the “hERG current change (%, negative = inhibition) at 1uM” value is on record as 3.66%. Consider `Clc1nnc(N/N=C/c2ccccc2)c2ccccc12`, for which the “hERG current change (%, negative = inhibition) at 1uM” value was -1.11%. The result for `CCOC(=O)C(C)n1cnc2c(nnn2-c2ccc(F)cc2)c1=O` (stereo not drawn) reads 6.1%; that for `Cc1cc(C)cc(OCCCC(=O)O)c1`, 18.2%; that for `Cc1cccc(-c2nnc(SCC(=O)N3c4ccccc4CCc4ccccc43)n2C)c1`, -0.61%.

As to `CCOc1ccccc1/C=N/NC(=O)C[n+]1ccccc1.[Cl-]`, the “hERG current change (%, negative = inhibition) at 1uM” value worked out at 3.98%. To `Cc1c(O)cc2c(c1O)C(=O)CC(c1ccc(O)cc1)O2` (stereo not drawn) belongs 5.99%. `COc1cc(OC)nc(NC(=O)C(C)C)n1`: the “hERG current change (%, negative = inhibition) at 1uM” value amounted to 12.2%. To `Cc1ccc(C(=O)OC2CCN(c3ccc([N+](=O)[O-])cc3)CC2)cc1` belongs 0.026%; to `COc1cccc(C(=O)NC(C)CCc2ccccc2)c1` (stereo not drawn), 14%. The result for `CCc1ccc(C2=NN(c3ccc(S(N)(=O)=O)cc3)C(c3ccc(F)cc3)C2)cc1` (stereo not drawn) reads 13.2%; that for `CNC(=O)C1CC(=O)N(c2ccc(OCC(=O)Nc3ccc(OC)cc3)cc2)C1` (stereo not drawn), 7.82%. As for `CCN(CC)C(=O)Cn1cc(C(=O)C(=O)N2CCN(C)CC2)c2ccccc21`, the “hERG current change (%, negative = inhibition) at 1uM” value stood at 15.1%. As for `CN1C(C(=O)NCc2ccc(OC(F)(F)F)cc2)CC2Cn3c(nc4cc5ccccc5cc43)C21` (stereo not drawn), the “hERG current change (%, negative = inhibition) at 1uM” value is reported as -14.7%. `CSc1ncccc1C(=O)OCC(=O)c1ccccc1Br`: the “hERG current change (%, negative = inhibition) at 1uM” value came out at 8.13%. To `C=C(C)C(=O)Nc1cccc(C2=NOC3(C2)C[C@H](C(N)=O)N(C(=O)c2ccccc2C(=O)c2ccccc2)C3)c1` (stereo partly drawn) belongs 1.18%; to `CCSc1nnc(NC(=O)CN(C)S(=O)(=O)c2ccc(F)cc2)s1`, 12%.

Turning to `O=C(CSc1nnc(-c2cccnc2)s1)Nc1cccc(C(=O)O)c1`, the “hERG current change (%, negative = inhibition) at 1uM” value came to 1.24%.

On to `CCCOC(=O)C(C)n1cnc2sc(C)c(C)c2c1=O` (stereo not drawn), for which the “hERG current change (%, negative = inhibition) at 1uM” value is 11.1%.
